The other results are listed elsewhere or left out. The energies were worked out here from pooled read counts, against the library average; single values are noisy.
Biological target: T1, Pho4 (S. cerevisiae) (UniProt P07270)
T1 sequence: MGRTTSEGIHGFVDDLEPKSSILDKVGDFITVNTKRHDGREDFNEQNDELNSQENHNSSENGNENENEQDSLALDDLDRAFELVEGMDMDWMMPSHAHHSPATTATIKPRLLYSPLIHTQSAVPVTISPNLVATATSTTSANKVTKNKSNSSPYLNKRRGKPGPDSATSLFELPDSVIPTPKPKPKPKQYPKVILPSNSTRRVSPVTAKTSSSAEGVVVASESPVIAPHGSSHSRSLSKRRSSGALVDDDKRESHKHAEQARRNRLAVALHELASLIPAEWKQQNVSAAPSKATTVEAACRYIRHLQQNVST
Assay: relative binding free energy (BET-seq); higher = weaker binding
Conditions: reference: library average

Sequence	relative binding free energy
AGGTTCACGTGAGAAA	0.36 kcal/mol
TCTGGCACGTGGATAT	-0.14 kcal/mol
TGTTACACGTGTTTAT	0.17 kcal/mol
TTGATCACGTGGGAGA	0.07 kcal/mol
TGTGGCACGTGATTCA	0.06 kcal/mol
GGAGACACGTGAGTGT	0.18 kcal/mol
GTCGGCACGTGTTAGG	0 kcal/mol
CTAATCACGTGGTTGG	-0.02 kcal/mol
TGGGGCACGTGAAGTG	0.31 kcal/mol
GTTGCCACGTGGTATG	-0.18 kcal/mol
AGTGTCACGTGTGTGA	0.2 kcal/mol
ATATGCACGTGGGTAT	-0.08 kcal/mol
CTAGGCACGTGTCAGT	-0.03 kcal/mol
AGAGTCACGTGTTGGT	0.12 kcal/mol
ATGTGCACGTGGCAAG	-0.14 kcal/mol
AATGGCACGTGTGATG	0.14 kcal/mol
TAATTCACGTGGAATT	0.21 kcal/mol
AGTAGCACGTGGATGA	-0.09 kcal/mol
TCTGACACGTGATTTG	0.25 kcal/mol
TAGGCCACGTGGGCGG	-0.29 kcal/mol
TCGTTCACGTGATATT	0.47 kcal/mol
CAGTGCACGTGGTAGA	0.01 kcal/mol
AATGGCACGTGTTGTC	0.1 kcal/mol
CAGTGCACGTGGGTTC	-0.09 kcal/mol
TTGCGCACGTGGGGCG	-0.29 kcal/mol
TGAGTCACGTGGGACT	-0.03 kcal/mol

Sequence	relative binding free energy
CACGTCACGTGTGGGG	0.1 kcal/mol
ATTAGCACGTGAGTAC	0.39 kcal/mol
TGTAGCACGTGATTAG	0.02 kcal/mol
GTAGGCACGTGATATA	0.01 kcal/mol
GAGTACACGTGGGTCT	-0.11 kcal/mol
GGTATCACGTGGCGGG	0.15 kcal/mol
TGGGTCACGTGTGCAT	0 kcal/mol
AGTGTCACGTGTGAGT	0.19 kcal/mol
GGGTTCACGTGTGTCT	0.28 kcal/mol
AAGTACACGTGATTTT	0.17 kcal/mol
ATAGGCACGTGGGATG	-0.32 kcal/mol
TGCGGCACGTGTGATG	-0.04 kcal/mol
TTGCTCACGTGAGGTT	0.3 kcal/mol
CGGGACACGTGGAAGG	0.18 kcal/mol
AGACGCACGTGATGGG	0.04 kcal/mol
CGGGCCACGTGCGGGG	-0.26 kcal/mol
TTATGCACGTGGCCGG	-0.09 kcal/mol
TAGTTCACGTGTTCAT	0.19 kcal/mol
CCGTGCACGTGAGTGT	0.14 kcal/mol
TGGGTCACGTGGGGCG	-0.03 kcal/mol
ATAGTCACGTGAAGGC	0.34 kcal/mol
GTTGGCACGTGGGGAT	-0.16 kcal/mol
ATTAACACGTGTGTTT	-0.04 kcal/mol
GTGCACACGTGATTGA	0.27 kcal/mol
CGTGGCACGTGGCTGG	-0.18 kcal/mol
GCTTTCACGTGGTAGG	0.22 kcal/mol

Sequence	relative binding free energy
GGGCACACGTGTGTTG	-0.08 kcal/mol
TTTCGCACGTGATGTT	0.11 kcal/mol
TATGTCACGTGCTGGC	0.17 kcal/mol
ACTAGCACGTGGTAGG	-0.2 kcal/mol
TGGGGCACGTGCCGAG	-0.26 kcal/mol
GGATGCACGTGACAGT	0.3 kcal/mol
GTTGTCACGTGGGAGA	0.17 kcal/mol
TAATGCACGTGGGTCT	-0.14 kcal/mol
ATCGTCACGTGGTGTA	-0.02 kcal/mol
AAGTTCACGTGGGCTA	0.31 kcal/mol
GTGTACACGTGAGGGA	0.31 kcal/mol
CAGGGCACGTGGTAGG	-0.27 kcal/mol
ATAGGCACGTGGCTGT	-0.15 kcal/mol
CTGTTCACGTGATAGG	0.36 kcal/mol
TAGGTCACGTGCTGGT	0.11 kcal/mol
TGAGTCACGTGACGAT	0.21 kcal/mol
GGCTGCACGTGAATGG	0.3 kcal/mol
GTAAGCACGTGGGAGT	-0.16 kcal/mol
GGGGCCACGTGGATGG	0 kcal/mol
AGTGACACGTGGAGAG	0.04 kcal/mol
CATGACACGTGGTTGT	-0.1 kcal/mol
GTGAGCACGTGTCTGT	-0.09 kcal/mol
TAGGCCACGTGTAGGA	-0.05 kcal/mol
ATTTTCACGTGTTATC	0.21 kcal/mol
ATTGTCACGTGCATGG	0 kcal/mol
CGCTACACGTGTGTGT	0.07 kcal/mol

Sequence	relative binding free energy
ATGAGCACGTGTCATG	-0.03 kcal/mol
AGAATCACGTGAGGGT	0.3 kcal/mol
AGTAACACGTGTGTGA	0 kcal/mol
AGCTGCACGTGAGTTT	0.26 kcal/mol
CGAGGCACGTGTGATG	0.02 kcal/mol
TGAGCCACGTGGGGGG	-0.27 kcal/mol
CGCGGCACGTGAGGTT	0.13 kcal/mol
TATTGCACGTGATCGG	-0.03 kcal/mol
CTTTTCACGTGTGAGT	0.18 kcal/mol
GTCGGCACGTGGTATA	-0.22 kcal/mol
TGTTTCACGTGATTCG	0.44 kcal/mol
GTAACCACGTGGGGGT	-0.07 kcal/mol
GTGGCCACGTGTTATG	-0.12 kcal/mol
TTTATCACGTGATCGA	0.18 kcal/mol
TGTAGCACGTGGGGAC	-0.17 kcal/mol
ATGAGCACGTGTTTGA	-0.13 kcal/mol
TGTGACACGTGTTTTT	0.03 kcal/mol
TTTAACACGTGTTAAA	-0.06 kcal/mol
ATGAGCACGTGGGTTT	-0.04 kcal/mol
AGTGCCACGTGGAGGG	-0.08 kcal/mol
AGTTGCACGTGCAGAT	0.02 kcal/mol
TGACTCACGTGTGTGT	0.29 kcal/mol
ACGCACACGTGGTGGG	-0.09 kcal/mol
CTAGACACGTGATGGT	0.01 kcal/mol
GTGGGCACGTGCAGGA	-0.06 kcal/mol
GTATACACGTGTGTCG	-0.04 kcal/mol

Sequence	relative binding free energy
TTAATCACGTGGTAAG	0.19 kcal/mol
TGGGACACGTGGCGCT	-0.03 kcal/mol
TGAGGCACGTGCTGCG	-0.31 kcal/mol
TGTGCCACGTGTTCGT	-0.21 kcal/mol
AGGGTCACGTGGTGTA	0.13 kcal/mol
GTGGGCACGTGTCAGC	-0.05 kcal/mol
ATGCACACGTGGGGGC	-0.13 kcal/mol
TTGTGCACGTGGGCTA	-0.23 kcal/mol
GACTTCACGTGGGGTT	0.17 kcal/mol
TATCGCACGTGGGTGT	-0.36 kcal/mol
GTTTTCACGTGTGTTG	0.28 kcal/mol
GTAGGCACGTGCGGGG	-0.12 kcal/mol
TATGGCACGTGTCATT	-0.16 kcal/mol
AGTGGCACGTGATGTG	0 kcal/mol
ACGGCCACGTGTAGGA	0.29 kcal/mol
CGGGCCACGTGGGTTA	-0.23 kcal/mol
CGTGTCACGTGATCGG	0.23 kcal/mol
TTATTCACGTGGCAGG	0.23 kcal/mol
ATGTCCACGTGTGGAG	0.12 kcal/mol
ATCGGCACGTGGGGAG	-0.2 kcal/mol
AGTCTCACGTGTTTGT	0.28 kcal/mol
ATTTTCACGTGATCTA	0.31 kcal/mol
ATGTTCACGTGATTTT	0.36 kcal/mol
TAGCTCACGTGGAAGT	0.28 kcal/mol
CGCGGCACGTGGTTGG	-0.06 kcal/mol
TTATGCACGTGCTCGG	-0.17 kcal/mol

Sequence	relative binding free energy
GCTTTCACGTGCGGGG	0.26 kcal/mol
TGGGACACGTGACATG	0.24 kcal/mol
GCTATCACGTGGTTTT	0.19 kcal/mol
GAGTTCACGTGCGTTG	0.14 kcal/mol
TTATTCACGTGTATGG	0.25 kcal/mol
ATTATCACGTGATATG	0.27 kcal/mol
TCGGTCACGTGTGTCT	0.11 kcal/mol
GTGTTCACGTGGTATA	0.1 kcal/mol
GGCGGCACGTGGCCGG	-0.27 kcal/mol
TGTATCACGTGTAGGG	0.21 kcal/mol
TATGGCACGTGTCTGA	-0.05 kcal/mol
AAAGGCACGTGGGGAA	-0.27 kcal/mol
TACTGCACGTGTTTTT	-0.05 kcal/mol
TTGTGCACGTGCGTAC	-0.02 kcal/mol
ATAATCACGTGTATAT	0.01 kcal/mol
GATGTCACGTGTAATT	0.28 kcal/mol
GGGGGCACGTGAAAGG	0.24 kcal/mol
TCGTGCACGTGGTGGC	-0.06 kcal/mol
GGTTGCACGTGGCAGG	0 kcal/mol
TGACACACGTGATGTT	0.05 kcal/mol
TTGCTCACGTGAGGTA	0.26 kcal/mol
CTGGTCACGTGGTTTT	0.06 kcal/mol
TTTTCCACGTGGGAGG	0.09 kcal/mol
TGGCGCACGTGATATG	0.2 kcal/mol
GTGTTCACGTGTGCGA	0.26 kcal/mol
GTGTTCACGTGGATAT	0.43 kcal/mol

Sequence	relative binding free energy
TCTGTCACGTGTTAGC	0.17 kcal/mol
CTGTTCACGTGGGGGT	0.1 kcal/mol
TTCTGCACGTGCGGAG	0.01 kcal/mol
TGCGTCACGTGCTGTG	0.05 kcal/mol
TTTCACACGTGTTGGG	0.19 kcal/mol
TCCATCACGTGTTTTT	0.31 kcal/mol
GGAGGCACGTGGTCTA	-0.14 kcal/mol
GTTTTCACGTGAATGC	0.48 kcal/mol
TGTGACACGTGTTAAG	0.06 kcal/mol
ATAATCACGTGAAATT	0.34 kcal/mol
CGGTTCACGTGTTCAG	0.35 kcal/mol
GAGGCCACGTGGAGGA	0.03 kcal/mol
TCGGACACGTGTGTCG	0.06 kcal/mol
TTAGACACGTGAATGT	0.27 kcal/mol
CTTTACACGTGATTTG	0.12 kcal/mol
ATGTGCACGTGTGTAC	-0.11 kcal/mol
AACGGCACGTGGGAGG	-0.16 kcal/mol
AATATCACGTGTTGCA	0.32 kcal/mol
TGAGTCACGTGAAAAG	0.28 kcal/mol
GGTCGCACGTGTGGGA	0.1 kcal/mol
TAGTTCACGTGTAGGT	0.4 kcal/mol
AGTTGCACGTGGATAT	-0.03 kcal/mol
GGGTGCACGTGTTCTG	0.06 kcal/mol
TAGGGCACGTGGATGG	-0.16 kcal/mol
AGGATCACGTGATATT	0.31 kcal/mol
TGTAACACGTGTCAGG	0.07 kcal/mol

Sequence	relative binding free energy
CGATTCACGTGTGAGT	0.3 kcal/mol
TTATGCACGTGAATGA	0.27 kcal/mol
GTAGGCACGTGAGAGT	0.23 kcal/mol
TTTGTCACGTGGAGAT	0.24 kcal/mol
ATGGGCACGTGAACGG	0.07 kcal/mol
AGTTGCACGTGTTAGT	-0.08 kcal/mol
GTTCGCACGTGTGTTG	0.06 kcal/mol
GTTAACACGTGTATGT	0.03 kcal/mol
TGCGGCACGTGCGGGT	-0.13 kcal/mol
CTTTACACGTGAGTTT	0.26 kcal/mol
TTTTACACGTGATCGG	0.29 kcal/mol
TTCGGCACGTGAGCGG	0.08 kcal/mol
TTGGTCACGTGGGATC	0.1 kcal/mol
GGCTTCACGTGGGGTT	0.25 kcal/mol
GGTCTCACGTGTGTGG	0.31 kcal/mol
CATGGCACGTGGGTTC	-0.18 kcal/mol
TGTGGCACGTGTATAA	-0.12 kcal/mol
GAGGGCACGTGCTTGA	-0.12 kcal/mol
AGGAGCACGTGGTTTC	-0.02 kcal/mol
AGATTCACGTGGTGCA	0.19 kcal/mol
TTTCTCACGTGTTAGG	0.36 kcal/mol
TTGAACACGTGGCGTG	0.12 kcal/mol
GGTCTCACGTGGGGAC	0.12 kcal/mol
GGGAGCACGTGATAGA	0.02 kcal/mol
GGTAGCACGTGACGGG	0.22 kcal/mol
ATCGCCACGTGGGGGG	-0.23 kcal/mol

Sequence	relative binding free energy
TTGGGCACGTGTGGAA	-0.09 kcal/mol
TTGCTCACGTGTTGTG	0.23 kcal/mol
GCGGTCACGTGAAAGT	0.43 kcal/mol
TTCAACACGTGAGTGG	0.34 kcal/mol
GTGAGCACGTGGAAGG	0.03 kcal/mol
ATTTGCACGTGTCATT	-0.08 kcal/mol
GGCGGCACGTGGGAAA	0.03 kcal/mol
GGGGACACGTGAAGAT	0.27 kcal/mol
TTATACACGTGAGTTT	0.25 kcal/mol
GGGGGCACGTGTACAT	-0.08 kcal/mol
TGATTCACGTGCGAAT	0.42 kcal/mol
TTTTACACGTGAGGAG	0.19 kcal/mol
CGATGCACGTGTAGGA	0.16 kcal/mol
CTTGTCACGTGAAGGT	0.1 kcal/mol
CGCGGCACGTGAGAGG	0.13 kcal/mol
GTTCGCACGTGAGTGG	0.13 kcal/mol
TTGATCACGTGCTAGG	0.05 kcal/mol
TGGGACACGTGAGGCG	0.31 kcal/mol
TTGATCACGTGCGGGT	0.14 kcal/mol
TTTGTCACGTGTGAAC	0.2 kcal/mol
TACAGCACGTGTGTAT	0.06 kcal/mol
ATGGGCACGTGCCGGT	-0.29 kcal/mol
